Test results from PubChem BioAssay AID1508642 (National Center for Advancing Translational Sciences (NCATS), 2021).
Out of some 43,000 compounds screened, about 200 (0.47%) were called active. Roughly 12% stayed inconclusive and do not appear here. Calls come from the whole dose curve; as a rule, active = well fitted cell-killing curve with a large enough effect; inconclusive = small, poorly fitted or top-dose-only effect, or effect the other way; inactive = flat fitted curve, though single readings scatter. This is one part of the list.

Assay: Cell viability qHTS assay in S16 Pmp22-F2sN cells; note: nearly all actives have a fitted effect of over 65% in size
Conditions: S16 Pmp22-F2sN Schwann cells (luciferase reporters placed in the Pmp22 gene) viability, CellTiter-Glo, 24 h; series mostly up to 57.5 µM; activity change, negative = cytotoxicity: at the top concentration
How it was run: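 CellTiter-Glo counter-screen, qHTS, 1536-well. Cells: S16(c9) Pmp22-F2sN, 500-1,000/well in DMEM + 10% FBS. Cpd 23 nL pin transfer, 24 h, 37C/5% CO2. Read: luminescence, CCD imager.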
% is set by controls: 0 for no effect and ±100 for the full control effect.

| Compound | activity change, negative = cytotoxicity |
| --- | --- |
| COc1cccc(Cn2c(=O)cc(C)c3c(C)nn(C)c32)c1 | inactive: -14.8% |
| CCOc1cccc(C2c3[nH]c4ccccc4c3CCN2C(=O)CSc2ccccc2)c1 (stereo not given) | inactive: -2.85% |
| Cc1cccc(C(=O)N2CCc3cc(CNC(=O)COc4ccc(Cl)cc4)ccc32)c1 | inactive: 6.67% |
| CCOc1ccc(NC(=O)Cn2c(=O)n(-c3cccc(Cl)c3)c(=O)c3c2c2cc(C)ccc2n3C)cc1 | inactive: 12.4% |
| COc1cc(NC(=O)c2ccc3oc(=O)c(S(=O)(=O)c4ccccc4)cc3c2)cc(OC)c1 | inactive: -2.52% |
| COc1cc2c(=O)c(C(=O)c3ccc(C)c(C)c3)cn(Cc3ccc(F)cc3)c2cc1OC | inactive: 3.98% |
| CCOc1ccccc1NC(=O)c1ccc2c(c1)CCN2S(=O)(=O)c1ccc(C)cc1 | inactive: 7.5% |
| Cc1ccccc1NC(=O)CSc1cn(CC(=O)N2CCCCCC2)c2ccccc12 | inactive: -6.77% |
| CCSc1nnc2c(n1)OC(c1cc(OC)c(OC)c(OC)c1)Nc1ccccc1-2 (stereo not given) | inactive: -15.1% |
| CCOc1cc(CNC(=O)Cn2c(=O)c3cccn3c3ccc(F)cc32)cc(OCC)c1OCC | inactive: 4.98% |
| CCOC(=O)c1c(C)[nH]c(C)c1S(=O)(=O)NCC(=O)Nc1ccc(C)c(N(C)C)c1 | inactive: 14.6% |
| CC(C)c1ccc(NC(=O)C2CCN(S(=O)(=O)c3cccc4nonc34)CC2)cc1 | inactive: 19.2% |
| Cc1ccccc1Nc1c(-c2ccc(Cl)cc2)nc2c(C)cccn12 | inactive: -9.08% |
| COc1ccc(NC(=O)Cn2c(=O)n(CCc3ccccc3)c(=O)c3c4c(sc32)CCCC4)cc1 | inactive: 24.8% |
| Cc1ccc(N2C(=O)CSC23C(=O)N(Cc2ccccc2F)c2ccccc23)cc1F (stereo not given) | inactive: 8.02% |
| CCOC(=O)c1c(NC(=O)c2nc(SCC)ncc2Cl)sc2c1CCCC2 | inactive: 5.54% |
| COc1cc(OC)c(NC(=O)c2cc3c(=O)oc4ccc(C)cc4c3s2)cc1Cl | inactive: 1.89% |
| COc1ccc(CNC(=O)Cc2ccc(NC(=O)N3CCSc4ncccc43)cc2)cc1OC | inactive: -1.16% |
| Cc1cc(NC(=O)c2cc(-c3ccc(Cl)cc3)on2)n(-c2ccccc2)n1 | inactive: 14.7% |
| CCc1cccc(C)c1NC(=O)C1CCCN1S(=O)(=O)c1cccc2nsnc12 (stereo not given) | inactive: 8.23% |

| Compound | activity change, negative = cytotoxicity |
| --- | --- |
| O=C(Cn1c(=O)c2cccn2c2ccccc21)NCc1ccccc1F | inactive: 10.4% |
| COC(=O)c1ccc(NC(=O)Cn2cnc3c2c(=O)n(C)c(=O)n3C)cc1 | inactive: 1.62% |
| Cc1cccc(N(CC(=O)NCCSCc2ccccc2)S(=O)(=O)c2ccccc2)c1C | inactive: 1.61% |
| Cc1nc(N2CCCC2)c2c(C(=O)N3CCN(c4cc(Cl)ccc4C)CC3)c(C)oc2n1 | inactive: -12.7% |
| CCn1c(=O)c(=O)n(CC)c2cc(S(=O)(=O)Nc3ccc(C)cc3)ccc21 | inactive: 6.48% |
| Cc1ccc(NC(=O)C2CCCN(S(=O)(=O)c3c(C)noc3C)C2)cc1 (stereo not given) | inactive: 0.0949% |
| Clc1ccc(-n2c(Cc3ccccc3)nnc2SCc2nc(-c3cccs3)no2)cc1 | inactive: -15.9% |
| Nc1c(C(=O)Nc2ccccc2)sc2nc3c(cc12)CN(Cc1ccccc1)CC3 | inactive: -0.879% |
| Cc1cccc(-n2c(=O)c3c4c(sc3n3c(C)nnc23)CCCC4)c1 | inactive: 8.8% |
| COc1ccc(NC(=O)c2oc3ccccc3c2NC(=O)C2CCCCC2)c(OC)c1 | inactive: 9.63% |
| CCOc1cc(C#N)c(-n2nnc3c(sc4nc(C)cc(C)c43)c2=O)cc1OCC | inactive: -2.94% |
| COc1ccccc1Nc1ncnc2scc(-c3ccc(F)cc3)c12 | inactive: -28.4% |
| Cc1ccc(CNC(=O)c2ccc(CS(=O)(=O)Cc3ccc(C)cc3)o2)cc1 | inactive: -1.96% |
| CCOC(=O)c1ccc(Nc2nn3c(=O)c4ccccc4nc3s2)cc1 | inactive: 8.13% |
| COc1cc(OC)c(NC(=O)N2CCC(CN3CCCC3)CC2)cc1Cl | inactive: 11.9% |
| COc1ccc(OC)c(NC(=O)c2ccc3c(Cl)c4c(nc3c2)CCCC4)c1 | inactive: 17% |
| CCCCN(C)C(=O)Cn1cnc2sc(C)c(S(=O)(=O)N3CCC(C)CC3)c2c1=O | inactive: -15.2% |
| CCCCN(CCCNC(=O)c1cc(Nc2ccccc2OC)nc2ccccc12)c1ccccc1 | inactive: 9.74% |
| COc1ccc(CNC(=O)c2cccn2-c2nnc(N3CCCC3)s2)c(OC)c1 | inactive: 4.7% |
| COc1ccc(C2(CNC(=O)C(=O)Nc3ccccc3C)CCCC2)cc1OC | inactive: -7.41% |

| Compound | activity change, negative = cytotoxicity |
| --- | --- |
| CCN(CC)c1ccc(C2Nc3ccccc3-c3cc(C)nn32)cc1 (stereo not given) | inactive: -8.01% |
| COc1ccc(-n2c(SCC(=O)NCc3ccccc3)nc3c([nH]c4ccccc43)c2=O)cc1 | inactive: 0.0641% |
| Cc1ccc(N(Cc2cccs2)C(=O)c2ccco2)cc1 | inactive: 2.84% |
| COc1cc(Nc2nc(SCC(=O)c3ccc(Cl)c(Cl)c3)nc3ccccc23)cc(OC)c1 | inactive: -6.04% |
| O=C(CCC1N=C2c3ccccc3N=C(SCC(=O)Nc3ccc(F)cc3)N2C1=O)NCc1ccco1 (stereo not given) | inactive: -1.23% |
| CC(C)N(C(=O)Cn1cc(S(=O)(=O)Cc2ccc(Cl)cc2)c2ccccc21)C(C)C | inactive: 9.63% |
| COc1ccc(Nc2nn(-c3ccc(OC(F)(F)F)cc3)nc2C(C)=O)cc1 | inactive: -0.976% |
| Cc1cc(C(=O)NCc2ccccc2)c2c(C)nn(-c3cccc(F)c3)c2n1 | inactive: -14.5% |
| COc1ccc(NC(=O)CC2Nc3ccccc3NC2=O)cc1 (stereo not given) | inactive: 24.4% |
| CCOc1ccc(NC(=O)c2ccc3c(SCC(=O)O)c4c(nc3c2)CCCC4)cc1 | inactive: -2.37% |
| Cc1ccc(C(=O)N2CCc3cc(CNS(=O)(=O)c4ccc(Cl)s4)ccc32)cc1 | inactive: 16.6% |
| Cc1ccc(C)c(N2CCN(C(=O)C3CCN(c4nc(-c5ccc(C(C)C)cc5)no4)CC3)CC2)c1 | inactive: -19.5% |
| CC(C(=O)Nc1cccc(C#N)c1)n1nc(-c2ccccc2)c2c(c1=O)CCCC2 (stereo not given) | inactive: -2.23% |
| Fc1ccc(-c2nc(Nc3ccc(F)c(Cl)c3)nc3c2COc2ccccc2-3)cc1 | inactive: -0.459% |
| CCOc1ccc(C2CC(=O)n3nc(-c4ccc(C)cc4)nc3S2)cc1OC (stereo not given) | inactive: -1.71% |
| CC1=C(C(=O)Nc2ccc(C)cc2C)C(c2ccccc2[N+](=O)[O-])n2ncc(C(=O)Nc3ccccc3)c2N1 (stereo not given) | inactive: -23% |
| CCOC(=O)C1CCCN(C(=O)c2ccc3c(c2)N(Cc2ccccc2)C(=O)c2ccccc2S3(=O)=O)C1 (stereo not given) | inactive: -3.4% |
| O=C(Nc1ccc(NC(=O)c2cc3ccccc3o2)cc1)c1ccccc1 | inactive: 8.21% |
| Cn1cc(S(=O)(=O)c2ccc(Cl)cc2)c(=O)c2cc(F)c(N3CCCCCC3)cc21 | inactive: -2.79% |
| O=C(CN1CCN(S(=O)(=O)c2cc(Cl)ccc2Cl)CC1)Nc1cccc(F)c1 | inactive: 1.76% |
